Test results: the RNAGym collection of RNA variant scans (doi:10.7554/elife.90254)
Read counts are not given, so values of variants with three or more changes are uncertain.

B1: LINE1-mini (parent)
chain: GGCAGAGCUCAACACAGCGUGGCAAAGUGGCUGUGGCUAGACUGCC

Variants of: B1
Test: self-cleavage, relative activity (ratio to wild type); higher = more cleavage; in vitro, sequencing; the parent is a self-cleaving ribozyme

Variant | self-cleavage
GGCAGAGCUCAACUCAGCGUGGCCAAGUGGCUGUGGCUAGACUGCA [A14U A24C C46A] | 0.05
GGCUAAGUUCAACACAGCGUGGCAGAGUGGCUAUGGCUAGACUGCC [A4U G5A C8U A25G G33A] | 0.33
UGCAGAGCUCAGCACAGCGUGGCAAAGUGGCUGUGGCUAGCCUGCC [G1U A12G A41C] | 0.05
GGCAGAGCUCACCCCAGCGUGGCAAAGUGGCUGUGGCCAAACUGCC [A12C A14C U38C G40A] | 0
GGCAUAGCUCAAUACAGCGGGGCAAAGUUGCUGUGGAUAGACUGCC [G5U C13U U20G G29U C37A] | 0.05
GGCAGAGCUCAACACCGCGUGGCAAAGUGGCUGAGGCUAGAGUGCC [A16C U34A C42G] | 0.03
GGCAGAGCUCAACACAGCGUUGCAAAGUGGCUCUGGCUAGACAGCC [G21U G33C U43A] | 0.01
GGCCGAGCUGAACACAGCGUGGCAAAGUGGAUGUGGCUAGACUGCU [A4C C10G C31A C46U] | 0.02
CGCUGAGCUCAAUACAGCGUGGCAAAGUGACUGUGGCUAGACUGCC [G1C A4U C13U G30A] | 0.07
GGCAGAGGUCAACACAGGGUGGCAAAGUGGCUGUUGCUAGACUGCC [C8G C18G G35U] | 0.03
GGCAGAGCUAAACACAGCGUGGCCAAGUGGCUGUGGCUACACUGCC [C10A A24C G40C] | 0.05
AGCAGAGCUCAACACAGCGUGGCAAAGUGGCUGAGGCAAGACUGCU [G1A U34A U38A C46U] | 0.53
AGCAGAGCUCAACACAUCGUGGCAAACUGACUGUGGCUAGGCUGCC [G1A G17U G27C G30A A41G] | 0.1
GGUAGUGCCCAACACAGCGUGGCAAAGUGGCUGUGGCUAGACUGCC [C3U A6U U9C] | 0.01
GGUAGAGCUCAACCCAGCGUGCCAAAGUGGCUGUGGUUAGACUGCC [C3U A14C G22C C37U] | 0.01
GGCAGAGCUCAACACAGCGCGGCAAAGUGACUGUGGCUAGACUGUC [U20C G30A C45U] | 0.33
UGAAGAGCCCAACACAGAGUGGCAAAGUGCCUAGGGCUAGACUGCC [G1U C3A U9C C18A G30C G33A U34G] | 0.04
GGCAGAGAUCAACGCAUCGUGGCUAAGUGUCUGUGGCUAGAGUGCC [C8A A14G G17U A24U G30U C42G] | 0.24
GGCUGAGCUCAACACUGCGUGGCAAAGUGGCUGUGGCUCGACUGCC [A4U A16U A39C] | 0

Variant | self-cleavage
CGCAGAGCUCAACGCAGCGUGGCAAAGCGGCUGUGGCAAGACUGCC [G1C A14G U28C U38A] | 0
GGCAGAGCACAACACAGCGUGGCUAAGUGGCUGUGGCUAUACUGCC [U9A A24U G40U] | 0.04
GGCAGAGCUCAACACAGCGUGGCACAGUGGCUGUGGCUAGACCGCA [A25C U43C C46A] | 0.11
GGCAUAACUCAAGACAGCGUGGCAAAGUGGCUGUGACUAGACUGCG [G5U G7A C13G G36A C46G] | 0.51
GGGAGAGCUCAACUCAGCGUGGCAAAGUGGCUGUGACUAGACUGCC [C3G A14U G36A] | 0.09
CGCAGAGCUCAAAAUAGCGUGGCAAAGUGGCUGUGGCCAGACUGCC [G1C C13A C15U U38C] | 0.06
GACCGAGCUCAACACACCGUGCCAAAGUGGCUGUGGCUAGACAGCC [G2A A4C G17C G22C U43A] | 0.05
GGCAGAGCUCAACACCGGGUGCCAACGUGGCUGUUGCUAGACUGCC [A16C C18G G22C A26C G35U] | 0.04
GGCAGAGCUCAACACAGCGUUGCACAGUGGCUGUGGCAAGACUGCC [G21U A25C U38A] | 0.22
GGCAGAGCACAAUACAGAGUGGCAAUGUGGCUGUGUCUAGACUGCC [U9A C13U C18A A26U G36U] | 0.03
GGAAGAGCUUAACACAGCGUGUCAAAGUGGCUAUGGGUAGACUGCC [C3A C10U G22U G33A C37G] | 0.05
AGCAGAGCUAAACACAUCGGGGCAUAGUGGCUGUGGCUAGGAUGCG [G1A C10A G17U U20G A25U A41G C42A C46G] | 0.05
GGCAGAGCUCAACACAGCGUGGCAAAUUCGCUGUGGCUAGACUGUC [G27U G29C C45U] | 0.39
GGCAGAGCUAGACACAGGGUAGCAAAGUGUCUGUGGCUAGACUGCC [C10A A11G C18G G21A G30U] | 0.04
GGCAGAGUUUGACUCAGCGUGGAAAAGUGGCUGCGGCUAGACUGCC [C8U C10U A11G A14U C23A U34C] | 0.03
GGCAGAGCUCAAGAAAGCGUGGCAAAGUGGCUGUGGCUAAACUGCC [C13G C15A G40A] | 0.06
GGCAGAGCCCAACACAGCGUGACAAUGUGGCUGUGGCUAGACUGCC [U9C G22A A26U] | 0.05
GGCAGAGCUCAACACAGCUUAGGAAAGUGGCUGAGGCUAGACUGCC [G19U G21A C23G U34A] | 0.11
GGCAGGGCUCAACACAGCGUUGCAAAGUCGCUGUGGCUACACAGCC [A6G G21U G29C G40C U43A] | 0.01

Variant | self-cleavage
GGCAGAGCGCAACACAGCGUGGCAAAGUAGCUGUGGCUAAACUGCC [U9G G29A G40A] | 0.02
GGCAGAGCUCAACACAGCGAGGCAAAUUUGCUGUGGCUAGGCUGCC [U20A G27U G29U A41G] | 0.03
GGCAGAGUGCAACACAGCGUGGCAAAGUGGUUGUGGCUAGAUUGCC [C8U U9G C31U C42U] | 0.03
GGGAGAGCUCAACACAGCGUGGCAGAGUGGCUUUGGCUAGACUGCC [C3G A25G G33U] | 0.15
GGCAGAGAUCCACACAGCGUAGCAAAGUGGCCGUGGCUAGACUGCC [C8A A11C G21A U32C] | 0.04
GGCAGAGCUCAACACAGCGUCCCAAAAUGGCUGUGACUAAACUUCC [G21C G22C G27A G36A G40A G44U] | 0.15
GGCCUAGCUCAAUACAGCGUGGCAAAGUGGCUGUGGCUAGACUGCC [A4C G5U C13U] | 0.06
GGCAGAGCUCAACACAGCGUGUCAAAGUGACUGUGGAUAGACUGCC [G22U G30A C37A] | 0
GGCAUAGUUCAACACAGCGUGGUAAAGUGGCUGUGGCUAAACUGCC [G5U C8U C23U G40A] | 0.03
CGCAGAGCUCAACACAGGGUUGCAAAGUGGCUGUGGCUAGAGUGCA [G1C C18G G21U C42G C46A] | 0.03
GGCAGAGGUCAACACAGCGUGGUAAAGUUGCUGUGGCUAGACUGCC [C8G C23U G29U] | 0.03
GGCAGCGCUCAACACAGCGUGGCAAAGCGGCUGUGGCUAGACUGCU [A6C U28C C46U] | 1.11
GGCAGAGUCAAACACAGCGUGGGAAAGUUGCGGUGGCUAUACUGCC [C8U U9C C10A C23G G29U U32G G40U] | 0.03
GGCAGCGCUCAACACAGCGUGGAAAAGUGGAUGUGGUUAGACUGAC [A6C C23A C31A C37U C45A] | 0.02
GGCAGAGCUCAACACAGCGUGGCACAGUGGCUGUGACAAGAGUGCC [A25C G36A U38A C42G] | 0
UGCAGAGCUAAACACAGCGUGUCAAAGUUGCUGUGGCUAGACUACC [G1U C10A G22U G29U G44A] | 0.02
GGCACAGCUAAAUACAGCGUGGCAAAGAGGCUGUGGCUAGACUGCA [G5C C10A C13U U28A C46A] | 0.02
GGCAGAAGUCAGAACAGCCUGGCAAGGUGGCUGUGGCUAUACUGCC [G7A C8G A12G C13A G19C A26G G40U] | 0
